# Test results reported in PubChem BioAssay AID624417 (National Center for Advancing Translational Sciences (NCATS), 2012).
# Screen size: about 410,000 compounds; about 6,400 (1.6%) were called active. Inconclusive means that the source gave no clear call. Such entries were picked first, then a sample of the others. Calls come from the whole dose curve; as a rule, active = well fitted inhibition curve with a large enough effect; inconclusive = small, poorly fitted or top-dose-only effect; inactive = no such curve, though single readings can be large or run the other way. Potencies of inconclusive entries are left out as doubtful fits.
# Target: Glucagon-like peptide 1 receptor (Homo sapiens) (UniProt P43220)
# Assay: qHTS of GLP-1 Receptor Inverse Agonists (Inhibition Mode); note: nearly all actives have a fitted effect of over 55% in size
# Details: HEK293 GLP-1R CRE-luciferase, luminescence, 24 h; Potency: GLP-1R form is constitutively active unless noted; series mostly up to 38.3 µM
# Method in brief: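 Readout was luciferase luminescence, measured 12 min after detection reagent at room temperature. Beforehand, GLP-1R reporter HEK293 cells had sat 12 h, then received compounds for 24 hr at 37 deg C.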
# Potency is the fitted concentration of half-maximal effect; tags give direction and shape of the fitted curve.
# Chain of UniProt P43220 (P43220 whole entry, looked up): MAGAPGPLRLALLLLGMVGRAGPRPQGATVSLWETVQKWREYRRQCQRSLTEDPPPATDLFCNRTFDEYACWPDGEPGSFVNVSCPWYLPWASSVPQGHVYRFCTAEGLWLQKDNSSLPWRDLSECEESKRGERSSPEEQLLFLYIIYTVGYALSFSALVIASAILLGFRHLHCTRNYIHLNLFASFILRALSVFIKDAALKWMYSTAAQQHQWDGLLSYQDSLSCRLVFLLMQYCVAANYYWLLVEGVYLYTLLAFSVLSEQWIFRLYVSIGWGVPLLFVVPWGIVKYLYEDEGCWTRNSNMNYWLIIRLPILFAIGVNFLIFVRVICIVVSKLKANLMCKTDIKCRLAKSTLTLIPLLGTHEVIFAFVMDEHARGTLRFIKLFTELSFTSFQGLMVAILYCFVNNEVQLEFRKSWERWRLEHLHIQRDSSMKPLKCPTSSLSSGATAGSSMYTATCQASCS
row,Compound,Potency
1,C=CCc1cc(C=C2C(=O)N(C)C(=O)N(C)C2=O)cc(OCC)c1OCc1ccccc1,"inconclusive [inhibitor, single point]"
2,CC1OC(C[N+](C)(C)C)CC1O (centres undefined),inactive
3,COC1=CC=C2[C@H]3Cc4ccc(OC)c5c4[C@@]2(CCN3C)[C@H]1O5,"inconclusive [inhibitor, partial curve, poor fit]"
4,CCOC(=O)C(O)(c1ccc(NC(=O)Oc2ccccc2)cc1)C(F)(F)F (centres undefined),"inconclusive [inhibitor, single point]"
5,O=c1[nH]c(=O)n(Cc2ccc(F)cc2)c(O)c1C=NCCCO,inactive
6,O=C(O)c1cccc(N=Nc2c(O)[nH]c(=O)[nH]c2=O)c1,"inconclusive [inhibitor, full curve]"
7,Cc1cccc(-n2c(-c3ccco3)nc3ccccc3c2=O)c1C,"inconclusive [inhibitor, partial curve, poor fit]"
8,COC(=O)C1=C(c2ccccc2OCc2ccccc2)C[C@@H]2CC[C@H]1N2C(=O)NCCOc1ccccc1Cl,"inconclusive [inhibitor, single point]"
9,COC(=O)C1=C(c2ccc(F)cc2OCc2ccccc2)C[C@@H]2CC[C@H]1N2C(=O)NCc1ccc(C(F)(F)F)cc1,"inconclusive [inhibitor, partial curve, poor fit]"
10,O=C(Nc1ccc(Cl)c(C(F)(F)F)c1)[C@@H]1CC=C[C@@H]2CCN(Cc3ccccc3)C(=O)[C@@H]21,"inconclusive [inhibitor, partial curve, poor fit]"
11,O=C(OCCCCN1C(=O)c2ccccc2C1=O)c1ccc(Br)o1,"inconclusive [inhibitor, single point]"
12,Cc1ccsc1C(=O)C1CCCN(Cc2ccc(-n3cccn3)cc2)C1 (centres undefined),active: 10 µM
13,O=C1CN=C(c2ccccc2)c2cc(Cl)ccc2N1Cc1ccc(Cl)cc1,"inconclusive [inhibitor, partial curve, poor fit]"
14,CCCCC/C(=N/O)c1c(C)[nH]c2ccccc12,"inconclusive [inhibitor, partial curve, poor fit]"
15,O=C1CN=C(c2ccccc2)c2c(sc3c2CCCC3)N1,"inconclusive [inhibitor, partial curve, poor fit]"
16,CC(C)n1c(=O)c(C=Nc2ccc(F)cc2)c(O)n(Cc2ccco2)c1=O,"inconclusive [inhibitor, partial curve, poor fit]"
17,O=c1[nH]c2ccccc2n1C1CCN(C(CCc2ccccc2)c2nnnn2Cc2ccccc2)CC1 (centres undefined),"inconclusive [inhibitor, full curve, poor fit]"
18,CC(=O)OC1C2(CC3N4C(=O)C5(CO)SSC4(CC31O)C(=O)N5C)OC(C)C(C)(C)C2=O (centres undefined),"inconclusive [inhibitor, full curve, poor fit]"
19,CC(=O)c1cn(Cc2ccccc2C#N)c2ccccc12,"inconclusive [inhibitor, partial curve, poor fit]"
20,CCC(=NCc1cc(OC)cc(OC)c1)c1c(O)n(C)c(=O)n(C)c1=O,inactive

row,Compound,Potency
1,CCOC(=O)C1CCCN(Cc2ccc(-c3ccccc3)cc2)C1 (centres undefined),"inconclusive [inhibitor, partial curve, poor fit]"
2,CN1CCN(c2ccc([N+](=O)[O-])c(Sc3ccccn3)c2)CC1,"inconclusive [inhibitor, single point]"
3,Cc1cc(Cl)ccc1OCCCC(=O)NCc1cccs1,"inconclusive [inhibitor, single point]"
4,COC(=O)C1=C(c2ccccc2)C[C@@H]2CC[C@H]1N2C(=O)NCc1cccc2ccccc12,"inconclusive [inhibitor, partial curve, poor fit]"
5,COc1cc(Cl)ccc1Nc1ncc(C(=O)N2CCN(c3ccccc3OC)CC2)c2ccccc12,"inconclusive [inhibitor, partial curve, poor fit]"
6,COc1ccc(N2CCN(C(=O)CCCCCn3c(=S)[nH]c4ccc(N5CCOCC5)cc4c3=O)CC2)cc1,"inconclusive [inhibitor, full curve, poor fit]"
7,Cc1ccc2[nH]c(C)c(CCNCc3cccnc3)c2c1,inactive
8,Cc1nccc2c1[nH]c1ccc(Br)cc12,"inconclusive [inhibitor, single point]"
9,CC(=O)O[C@H]1C[C@@H]2OC3C=C(C)CCC3(C)[C@@]1(C)[C@@]21CO1 (some centres undefined),"inconclusive [inhibitor, full curve, poor fit]"
10,NC(=O)c1c(Br)n(C2OC(CO)C(O)C2O)c2ncnc(N)c12 (centres undefined),"inconclusive [inhibitor, partial curve, poor fit]"
11,CC(C)N1CCOC(c2ccc(O)c(O)c2)C1 (centres undefined),inactive
12,COc1ccc(/C(=N/OC(C)=O)c2nccc3cc(OC)c(OC)cc23)cc1OC,inactive
13,CCOc1cc2c(cc1OCC)-n1cccc1C(c1ccccc1F)NC2 (centres undefined),"inconclusive [inhibitor, single point]"
14,COc1ccc2[nH]c3c(c2c1)CCN1C(=O)C(CC(=O)NCc2cccc(C(F)(F)F)c2)C[C@H](C(=O)N2CCCCC2)[C@@]31C (some centres undefined),"inconclusive [inhibitor, single point]"
15,Cc1cccc(-n2c(-c3cccs3)nc3ccccc3c2=O)c1,"inconclusive [inhibitor, single point]"
16,CN1CC(C(=O)c2cccs2)C(c2ccc(Cl)cc2)C1 (centres undefined),"inconclusive [inhibitor, partial curve, poor fit]"
17,CC1=NN(c2ccccc2)C(=O)C1/C=C1\C(=O)NC(=O)N(c2cc(C)cc(C)c2)C1=O (centres undefined),inactive
18,COc1ccc(C)cc1NC(=O)c1c(C)nn(Cc2ccccc2)c1Cl,"inconclusive [inhibitor, partial curve, poor fit]"
19,N#CC1c2ccccc2C=CN1C(=O)c1ccc(N(CCCl)CCCl)cc1 (centres undefined),"inconclusive [inhibitor, partial curve, poor fit]"
